{"source": "PubChem BioAssay AID463173", "about": "(ICCB-Longwood Screening Facility, Harvard Medical School, 2010)", "note": "Hit rate of the full screen: of about 52,000 compounds, about 4,300 (8.3%) were called active. Cut-off read from the data, not from the text of the source: active = survival mostly below about 52% (no sharp cut-off); inactive = mostly above about 56%. The list shows a part of the results.", "data": [{"tested_on": "DeltatarO mutant", "assay": "S. aureus survival, RN4220 and DeltatarO strains – OD600, teichoic acid synthesis inhibitors, primary screen (AID 463173)", "settings": "S. aureus RN4220 wild type/DeltatarO growth, OD600, 18 h, stronger effect = lower value, screened at 18.75 µg/mL (by protocol)", "values": [{"smiles": "CCN(CC)CCNC(=O)c1sc2ncccc2c1-n1cccc1", "survival": "inactive: 102%"}, {"smiles": "Cc1ccc(NC(=O)CSc2nc(-c3ccccc3Cl)nc3cc(=O)[nH]n23)c(C)c1", "survival": "inactive: 74%"}, {"smiles": "Cc1ccc(C(c2sc3nc(-c4ccco4)nn3c2O)N2CCC3(CC2)OCCO3)cc1", "note": "(configuration not stated)", "survival": "inactive: 78%"}, {"smiles": "CCc1cccc(Nc2ncnc3onc(-c4ccc(F)cc4)c23)c1", "survival": "inactive: 87%"}, {"smiles": "COC(=O)c1c(C)nn(-c2ccc(F)cc2)c1-n1cccc1", "survival": "inactive: 100%"}, {"smiles": "CCOc1ccccc1C(=O)NC1CC2CCCC(C1)N2Cc1nnnn1Cc1ccco1", "note": "(configuration not stated)", "survival": "inactive: 74%"}, {"smiles": "COc1ccc(OC)c(C2NC(=O)NC(C)=C2C(=O)Nc2ccc(F)cc2)c1", "note": "(configuration not stated)", "survival": "inactive: 80%"}, {"smiles": "COc1cccc(N2CCN(S(=O)(=O)c3ccc(-c4ccno4)cc3OC)CC2)c1", "survival": "inactive: 64%"}, {"smiles": "O=C(CSc1cn(CC(=O)N2CCCCC2)c2ccccc12)Nc1ccc(C(F)(F)F)cc1", "survival": "inactive: 77%"}, {"smiles": "COc1cc(C(=O)Nc2nonc2-c2ccc(C)c(C)c2)cc(OC)c1OC", "survival": "inactive: 79%"}, {"smiles": "COc1ccc(C)cc1-n1cnc2cc(C(=O)NC3CCCC3)ccc21", "survival": "inactive: 119%"}, {"smiles": "Cc1cc(C)n2c(SCC(=O)N(C)C3CCCCC3)nnc2n1", "survival": "inactive: 80%"}, {"smiles": "CCCN1C2CCCC1CC(NC(=O)Nc1ccc(SC)cc1)C2", "note": "(configuration not stated)", "survival": "inactive: 80%"}, {"smiles": "Cc1cc(C)cc(-n2c(SCC(=O)Nc3ccc4c(c3)OCCO4)nc3c([nH]c4ccccc43)c2=O)c1", "survival": "inactive: 126%"}, {"smiles": "Cn1cc(S(=O)(=O)c2ccccc2)c(=O)c2cc(F)c(N3CCCCCC3)cc21", "survival": "inactive: 100%"}, {"smiles": "Cn1c(=O)n(C)c2cc(N3CCCCC3)c(NC(=O)c3ccc(C(C)(C)C)cc3)cc21", "survival": "inactive: 93%"}, {"smiles": "COc1ccc(CNC(=O)CCc2nc(-c3ccc(C)cc3)no2)c(OC)c1", "survival": "inactive: 122%"}, {"smiles": "O=C(Nc1ccc2nc(SCC(=O)N3CCc4ccccc43)sc2c1)c1ccccc1F", "survival": "inactive: 119%"}, {"smiles": "CC1=C(c2ccc(C)c(C)c2)S(=O)(=O)N=C1N1CCC(C(=O)NC(C)Cc2ccco2)CC1", "note": "(configuration not stated)", "survival": "inactive: 83%"}, {"smiles": "COc1cccc(C(=O)Nc2ccccc2-c2nnc(-c3cccc(OC)c3)o2)c1", "survival": "inactive: 41%"}, {"smiles": "CC(=O)Nc1ccc(S(=O)(=O)NC2(C(F)(F)F)NC(=O)N(CCc3ccc(F)cc3)C2=O)cc1", "note": "(configuration not stated)", "survival": "inactive: 131%"}, {"smiles": "CCOC(=O)Cc1cc(=O)n2[nH]c(-c3ccccc3)cc2n1", "survival": "inactive: 92%"}, {"smiles": "CCOc1cc(CNC(=O)Cn2c(-c3cccs3)cc3cc(F)ccc32)ccc1OC", "survival": "inactive: 89%"}, {"smiles": "Cc1ccc(Cl)cc1NC(=O)CCC(=O)NCc1ccco1", "survival": "inactive: 74%"}, {"smiles": "O=C1NC(=Nc2ccccc2)S/C1=C\\c1ccc(C(=O)O)cc1", "survival": "inactive: 93%"}, {"smiles": "Cc1ccc(-n2c(SCC(N)=O)nc3c(oc4ccccc43)c2=O)cc1C", "survival": "inactive: 97%"}, {"smiles": "Cc1ccccc1Nc1c(-c2cccs2)nc2cccc(C)n12", "survival": "inactive: 63%"}, {"smiles": "CC1Cc2cc(S(=O)(=O)N(Cc3ccccc3)C(C)C)ccc2N1C(=O)C1CCC1", "note": "(configuration not stated)", "survival": "inactive: 73%"}, {"smiles": "Cc1cc(C(=O)Nc2c(C)nc3ccccn3c2=O)ccc1[N+](=O)[O-]", "survival": "inactive: 92%"}, {"smiles": "O=C(CSc1nc2c([nH]c3ccccc32)c(=O)n1-c1ccc(Cl)cc1)NCC1CCCO1", "note": "(configuration not stated)", "survival": "inactive: 78%"}, {"smiles": "CCOc1ccc(/C=C/c2nc(C#N)c(NCCc3ccccc3)o2)cc1", "survival": "inactive: 78%"}, {"smiles": "CCOC(=O)c1c(C)oc2nc(C)nc(NCc3ccccc3OC)c12", "survival": "inactive: 75%"}, {"smiles": "COc1ccccc1NC(=O)Cn1c(=O)n(CCCCCC(=O)NCc2ccccc2)c(=O)c2sccc21", "survival": "inactive: 54%"}, {"smiles": "Cn1c(=O)c2c(nc(NCCN3CCOCC3)n2C)n(C)c1=O", "survival": "inactive: 81%"}, {"smiles": "COc1ccc2c(c1)NC(c1cccnc1)=NC(c1ccc(F)cc1)=N2", "survival": "inactive: 82%"}, {"smiles": "Cc1ccc(S(=O)(=O)c2cn(Cc3ccccc3Cl)c3ccc(F)cc3c2=O)cc1", "survival": "inactive: 84%"}, {"smiles": "COc1ccc(Br)cc1CNC(=O)c1ccc2c(c1)N(Cc1ccc(C)cc1)CCS2", "survival": "inactive: 78%"}, {"smiles": "Cc1ccc(CN2C(=O)c3ccccc3Sc3ccc(C(=O)OCc4ccco4)cc32)cc1", "survival": "inactive: 99%"}, {"smiles": "O=c1ccccn1Cc1cn2ccccc2n1", "survival": "inactive: 104%"}, {"smiles": "CCOCCCn1c(=N)c(C(=O)NCC2CCCO2)cc2c(=O)n3cccc(C)c3nc21", "note": "(configuration not stated)", "survival": "inactive: 65%"}, {"smiles": "COC(=O)C(C)Sc1cc(C)c2ccccc2n1", "note": "(configuration not stated)", "survival": "inactive: 76%"}, {"smiles": "CCOC(=O)Cc1cc(=O)n2[nH]cc(C#N)c2n1", "survival": "inactive: 93%"}, {"smiles": "COC(=O)C1=C(c2ccccc2)c2ccccc2S(=O)(=O)N1CC(=O)Nc1ccccc1Cl", "survival": "inactive: 37%"}, {"smiles": "Cc1cccc(NS(=O)(=O)c2ccc3c(c2)CCN3C(=O)C2CCC2)c1", "survival": "inactive: 69%"}, {"smiles": "Cc1cccc2cc(CN(Cc3ccco3)Cc3nnnn3CCc3ccccc3)c(=O)[nH]c12", "survival": "inactive: 84%"}, {"smiles": "COC(=O)C1CCN(S(=O)(=O)c2cc3c4c(c2)CC(=O)N4CCC3)CC1", "survival": "active: 37%"}, {"smiles": "O=C(c1cccs1)N1CCCc2cc(NS(=O)(=O)c3ccc(F)cc3F)ccc21", "survival": "inactive: 79%"}, {"smiles": "CCCN(CCC)CCCNC(=O)Cn1cnc2sc(C)c(S(=O)(=O)N3CCC(C)CC3)c2c1=O", "survival": "inactive: 74%"}, {"smiles": "COc1ccc(-c2nn(-c3cccc(F)c3)c3c2cnc2cc(OC)c(OC)cc23)cc1", "survival": "inactive: 67%"}, {"smiles": "O=C(CCCCn1c(=O)c2ccccc2n(CC(=O)Nc2cccc(F)c2)c1=O)NCCc1ccccc1", "survival": "inactive: 78%"}, {"smiles": "COc1ccc2[nH]cc(S(=O)(=O)c3ccc(C)c(C)c3)c(=O)c2c1", "survival": "inactive: 88%"}, {"smiles": "COC(=O)Cn1cnc2c(cnn2-c2ccc(OC)cc2)c1=O", "survival": "inactive: 100%"}, {"smiles": "COc1ccc(Cn2c(=O)[nH]c3cc(C(=O)N4CCN(c5cc(Cl)ccc5C)CC4)ccc3c2=O)cc1", "survival": "inactive: 79%"}, {"smiles": "COc1ccccc1-c1noc(-c2ccc(NC(C)C)c([N+](=O)[O-])c2)n1", "survival": "inactive: 121%"}, {"smiles": "Cc1cc(C)cc(NC(=O)CCCc2nc(-c3ccccc3Cl)no2)c1", "survival": "inactive: 89%"}, {"smiles": "CSc1nc2sc3c(c2c(=O)n1-c1ccccc1)CCC(C(C)(C)C)C3", "note": "(configuration not stated)", "survival": "active: 18%"}, {"smiles": "Cc1ccc(NC(=O)C(C)Sc2nnc(C)n2C)cc1", "note": "(configuration not stated)", "survival": "inactive: 97%"}]}]}
